# In all, about 410,000 compounds went through this assay and about 5,000 (1.2%) were called active. Inconclusive means that the source gave no clear call. Such entries were picked first, then a sample of the others. Calls follow the shape of the dose curve; as a rule, active = well fitted inhibition curve with a large enough effect; inconclusive = small, poorly fitted or top-dose-only effect; inactive = no such curve, though single readings can be large or run the other way. A potency beside an inconclusive call is a rough fit, not a confirmed value.
# Assay: qHTS for Inhibitors of TGF-b; also: nearly all actives have a fitted effect of over 65% in size
# Conditions: HepG2 CAGA-GFP TGF-b/SMAD3 reporter, GFP fluorescence, 18 h, TGF-beta stimulated, 500 pg/mL final; series mostly up to 46.1 µM
# Method in brief: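 Per well, imaged GFP fluorescence of HEPG2 CAGA-GFP cells gives the signal; cells get compound, then TGF-beta (500 pg/mL final), 18 h at 37 degrees C; %Activity versus -TGF-beta and +DMSO controls.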
# Potency is read from the fitted curve at half-maximal effect; tags tell the direction and shape of the fitted curve.
row,Compound,Potency
1,COc1ccc(N(C(=O)c2cnccn2)C(C(=O)NCc2ccccc2)c2ccc(O)cc2)cc1 (stereo not given),inactive
2,O=C(CCCc1cccs1)Nc1nc(-c2ccc(F)cc2)cs1,inactive
3,Cc1ccc2c(c1)-c1c(cnn1CC(=O)N1CCN(c3ccccc3F)CC1)CO2,inactive
4,O=C(OCC12CC3CC(CC(C3)C1)C2)c1ccc(NCc2cc(O)ccc2O)cc1,"inconclusive: 20 µM [inhibitor, single point]"
5,CCCCN(CCCNC(=O)CN1N=C(c2ccc(C)cc2)CCC1=O)c1ccccc1,active: 12.6 µM
6,Cc1ccc(NC2=C/C(=N/S(=O)(=O)c3cccs3)c3ccccc3C2=O)cc1,"inconclusive: 3.98 µM [inhibitor, full curve, poor fit]"
7,CC1CCCCN1C(=O)Cn1ncc2c3ccccc3n(Cc3ccccc3F)c2c1=O (stereo not given),"inconclusive: 11.2 µM [inhibitor, partial curve, poor fit]"
8,Cc1c(-c2cccc(NC(=O)Nc3ccc(Cl)cc3)c2)nc2ncccn12,"inconclusive: 2.82 µM [inhibitor, full curve]"
9,CCOC(=O)c1c(NC(=S)Nc2cccc(C)c2)sc2c1CC(C)(C)SC2,"inconclusive: 35.5 µM [inhibitor, single point]"
10,NS(=O)(=O)c1ccc(N=NN2CCCCC2)cc1,"inconclusive: 35.5 µM [inhibitor, single point]"
11,Cc1ccccc1Nc1sc(C(=O)Nc2cccc(Cl)c2)c(N)c1C(N)=O,"inconclusive: 17.8 µM [inhibitor, single point]"
12,CN(C)CCCNC(=O)/C(=C\c1ccc(-c2cccc([N+](=O)[O-])c2)o1)NC(=O)c1ccccc1,"inconclusive: 11.2 µM [inhibitor, partial curve, poor fit]"
13,Cc1cc(N2CCN(S(=O)(=O)c3ccc(Cl)cc3)CC2)c2ccccc2n1,active: 14.1 µM
14,O=C(Cn1sc2ccccc2c1=O)Nc1ccc(Br)cc1,"inconclusive: 12.6 µM [inhibitor, partial curve]"
15,Cn1c(NC2CCCCC2)cc(=O)n(C)c1=O,inactive
16,Cc1cccc(NC(=O)c2nc[nH]c2C(=O)N[C@@H](C)C(=O)OCc2ccccc2)c1,"inconclusive: 1.26 µM [inhibitor, full curve, poor fit]"
17,Cc1ccc(NC(=O)Cn2c(=O)oc3cc(S(=O)(=O)N4CCCCC4)ccc32)c(Cl)c1,"inconclusive: 35.5 µM [inhibitor, single point]"
18,Cc1cccc(Cn2c(SCc3ccc(C(=O)NCc4ccccc4F)cc3)nc3ccncc32)c1,"inconclusive: 12.6 µM [inhibitor, partial curve, poor fit]"
19,O=S(=O)(Cc1ccccc1)c1cnc2ccccc2n1,"inconclusive: 20 µM [inhibitor, partial curve, poor fit]"
20,COC(=O)c1cc(OC)c(OC)cc1NC(=O)CSc1nnnn1Cc1ccccc1,"inconclusive: 15.8 µM [inhibitor, single point]"

row,Compound,Potency
1,COc1cccc(CNc2nc3cc(-c4ccc(C(=O)N5CCN(C)CC5)cc4)sc3c(=O)n2C)c1,"inconclusive: 14.1 µM [inhibitor, partial curve, poor fit]"
2,Nc1nn(-c2ccccc2)c(N)c1N=Nc1cccc(F)c1,"inconclusive: 35.5 µM [inhibitor, single point]"
3,COc1ccc(CNC(=O)C[C@H]2C[C@H](C(=O)N3CCOCC3)[C@@]3(C)c4[nH]c5cc(-c6ccco6)ccc5c4CCN3C2=O)cc1OC,"inconclusive: 12.6 µM [inhibitor, single point]"
4,O=C(C[n+]1ccccc1Cl)c1ccc(I)cc1,inactive
5,COCCNC(=O)Cn1c(=O)n(CCCCCC(=O)NCc2ccccc2Cl)c(=O)c2sccc21,"inconclusive: 35.5 µM [inhibitor, single point]"
6,Cc1cccc(C)c1OCc1cc(=O)n2c3c(sc2n1)CCCC3,"inconclusive: 10 µM [inhibitor, single point]"
7,O=C(NCc1ccccn1)C1Nc2ccc(OC(F)(F)F)cc2C2C=CCC12 (stereo not given),"inconclusive: 25.1 µM [inhibitor, single point]"
8,CCOC(=O)c1c(NC(=O)CSc2nnc(N)s2)sc(C)c1-c1ccc(C)cc1,"inconclusive: 22.4 µM [inhibitor, single point]"
9,COc1ccc(CNc2ccccc2SC)cc1OC,"inconclusive: 8.91 µM [inhibitor, partial curve, poor fit]"
10,CCCSc1ncc(Cl)c(C(=O)Nc2sc3c(c2C(=O)NCCCOC)CCCC3)n1,inactive
11,O=C(Nc1cccc(C(F)(F)F)c1)C1Cc2c(-c3ccccc3Oc3ccccc3)ccnc2O1 (stereo not given),"inconclusive: 12.6 µM [inhibitor, partial curve, poor fit]"
12,CCN(CC)C(=O)c1ncn(C)c1C(=O)N(CC)CC,"inconclusive: 0.794 µM [inhibitor, full curve, poor fit]"
13,COc1ccc(-n2cc(-c3ccccc3)c3c(NC4CCCC4)ncnc32)cc1,"inconclusive: 35.5 µM [inhibitor, single point]"
14,CCC(C)(C)c1ccc(OCCN2C(=O)NC(C)(C)C2=O)cc1,inactive
15,CC[C@]1(O)C[C@@H]2CN(CCc3c([nH]c4ccccc34)[C@@](C(=O)OC)(c3cc4c(cc3OC)N(C)[C@H]3[C@@](O)(C(=O)OC)[C@H](OC(C)=O)[C@]5(CC)C=CCN6CC[C@]43[C@@H]65)C2)C1,"inconclusive: 4.47 µM [inhibitor, partial curve, poor fit]"
16,CCC(C)NC(=O)C1CCN(S(=O)(=O)c2cccc3nonc23)CC1 (stereo not given),inactive
17,CC(=O)c1cccc(Nc2cc(C)nc3ccc(C)cc23)c1,"inconclusive: 35.5 µM [inhibitor, single point]"
18,Cc1ccc(-c2nnc(NCc3nc4ccccc4[nH]3)c3ccccc23)cc1S(=O)(=O)N1CCCCC1,inactive
19,CSc1ccc(Cn2nnc(C(=O)Nc3ccc(C)cc3Cl)c2N)cc1,inactive
20,Cc1cc(C)cc(NC(=O)CSc2nc(=O)n(Cc3ccccn3)c3c2CCC3)c1,"inconclusive: 1.12 µM [inhibitor, partial curve, poor fit]"

# — PubChem BioAssay AID588855 (National Center for Advancing Translational Sciences (NCATS), 2011)
